Results from PubChem BioAssay AID1508642 (National Center for Advancing Translational Sciences (NCATS), 2021).
Out of some 43,000 compounds screened, about 200 (0.47%) were called active. About 12% were inconclusive and are not listed. Calls come from the whole dose curve; as a rule, active = well fitted cell-killing curve with a large enough effect; inconclusive = small, poorly fitted or top-dose-only effect, or effect the other way; inactive = flat fitted curve, though single readings scatter. The list shows a part of the results.

Test: Cell viability qHTS assay in S16 Pmp22-F2sN cells; note: nearly all actives have a fitted effect of over 65% in size
Conditions: S16 Pmp22-F2sN Schwann cells viability, CellTiter-Glo, 24 h; series mostly up to 57.5 µM; activity change, negative = cytotoxicity: at the top concentration
How it was run: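 Viability was measured by CellTiter-Glo luminescence (15 min, room temperature). This followed 24 h at 37 °C of compound exposure (23 nL pin transfer) in S16 Pmp22-F2sN Schwann cells, 500-1,000 per well.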
% is set by controls: 0 for no effect and ±100 for the full control effect.

Row | Structure (SMILES) | activity change, negative = cytotoxicity
1 | COC(=O)c1c(-c2cccs2)csc1NC(=O)COc1ccccc1 | inactive: -2.09%
2 | COc1cccc(N2CC(NC(=O)C3CCCC3)CC2=O)c1 (stereo not drawn) | inactive: 1.18%
3 | COc1ccc(Cl)cc1NC(=O)Cn1nnc(C(=O)NCc2cccs2)c1N | inactive: -15.1%
4 | COc1ccccc1NC(=O)COC(=O)CC(C)(C)CC1=NS(=O)(=O)c2ccccc2N1 | inactive: 14.3%
5 | COc1ccc2c(CNCc3ccco3)c(C(=O)O)n(Cc3ccccc3)c2c1 | inactive: 7.05%
6 | COc1ccc(-c2nnc(SCC(=O)c3ccc(NC(C)=O)cc3)o2)cc1OC | inactive: -3.68%
7 | CSc1ccc(C2c3[nH]c4ccccc4c3CCN2C(=O)CCC2CCCC2)cc1 (stereo not drawn) | inactive: -23.8%
8 | COC(=O)c1c(-c2cccs2)csc1NC(=O)c1ccc(C(C)(C)C)cc1 | inactive: 2.21%
9 | O=C(Nc1ccc2nc(SCC(=O)N3CCCC3)sc2c1)c1cccc(F)c1 | inactive: -5.21%
10 | CCc1ccc(-n2c(=O)c3ccc(C(=O)NCCc4ccccc4)cc3n(Cc3ccccc3C#N)c2=O)cc1 | inactive: 13.1%
11 | Cc1cccc(Cc2c(C)nc3nc(SCc4cccc(F)c4)nn3c2C)c1 | inactive: -2.24%
12 | O=S(=O)(c1ccccc1)c1nnn2c1nc(NC1CCCCCC1)c1sccc12 | inactive: 18.7%
13 | Cc1ccc(-c2nc(S(=O)(=O)c3ccc(C)cc3)c(N3CCCCC3)o2)cc1 | inactive: 1.52%
14 | CCOc1ccc(CCNC(=O)CN2C(=O)COc3ccc(S(=O)(=O)N(CC)CC)cc32)cc1 | inactive: -0.047%
15 | COc1cc(S(=O)(=O)n2ccnc2C(C)C)ccc1Br | inactive: 2.34%
16 | Cc1ccc(Cn2ccnc2SCC(=O)NC2CCCC2)cc1 | inactive: 7.78%
17 | O=C(Nc1ccc2nc(SCC(=O)N3CCc4ccccc43)sc2c1)c1ccc(Cl)cc1 | inactive: 19%
18 | O=C(CSc1nc(-c2cccs2)cc(C(F)(F)F)n1)Nc1ccccc1Cl | inactive: -17.2%
19 | Cc1ccc(CNC(=O)c2ccc(NC(=O)c3nsc4ccccc34)cc2)cc1 | inactive: 2.13%
20 | CCCOc1ccc(CNC(=O)c2cc3oc4ccccc4c3n2C)cc1 | inactive: -0.414%
21 | CCOc1ccccc1NC(=O)C(=O)NCC(c1cccnc1)N1CCN(c2ccccc2)CC1 (stereo not drawn) | inactive: -21.2%
22 | Cc1ccc(NC(=O)CN2C(=O)C(c3ccc(F)cc3)=NC2(C)C)c(C)c1 | inactive: -0.283%
23 | Cc1cccc(C(=O)Nc2sc3c(c2C(=O)Nc2ccccc2)CCC3)c1 | inactive: 7.11%
24 | CCn1cc(C(=O)NCc2ccccc2Cl)c(=O)c2cc(S(=O)(=O)N3CCOCC3)ccc21 | inactive: -0.487%
25 | Cc1ccc2nc(NCCc3ccc(Cl)cc3)c3nncn3c2c1 | inactive: 2.86%
26 | Cc1ccc(C)c(Oc2c(C(F)(F)F)oc3c(CN4CCN(C)CC4)c(O)ccc3c2=O)c1 | inactive: 10.5%
27 | CC(C)c1ccc(Nc2c(-c3ccsc3)nc3ccc(Cl)cn23)cc1 | inactive: 0.218%
28 | CCOC(=O)C1=C(CN(C)Cc2ccccc2)NC(=O)NC1c1ccc(OC(C)C)cc1 (stereo not drawn) | inactive: -14.4%
